Measurements reported in the supplement of paper PMC12217912.
Some of the results follow. Sequences were assembled here from the parent chain. Inactive controls read about 0.05.

B1: TEV protease; numbered along this chain (parent)
chain: MGESLFKGPRDYNPISSSICHLTNESDGHTTSLYGIGFGPFIITNKHLFRRNNGTLVVQSLHGVFKVKDTTTLQQHLVDGRDMIIIRMPKDFPPFPQKLKFREPQREERICLVTTNFQTKSMSSMVSDTSCTFPSGDGIFWKHWIQTKDGQCGSPLVSTRDGFIVGIHSASNFTNTNNYFTSVPKNFMELLTNQEAQQWVSGWRLNADSVLWGGHKVFMVKPEEPFQPVKEATQL

Variants of: B1
Assay: raw area under fraction-flipped curve 0-4 h after induction (AUC4h, not background-subtracted), DNA-recorder readout of cleavage of the substrate (dimensionless); higher = more cleavage of the substrate by the protease variant
Conditions: temperature: 34 °C; time window: 0-4 h after rhamnose induction
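Note: Bxb1 expression induced with 0.2% (w/v) L-rhamnose at OD600 near 0.5, cultures sampled hourly, flipped fraction per protease–substrate barcode pair counted by paired-end Illumina sequencing.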

| Variant | area with substrate ENLKFQS | area with substrate ENLNFQS | area with substrate ENLFFQS | area with substrate ENLQFQS | area with substrate ENLWFQS | area with substrate ENLIFQS | area with substrate ENLLFQS | area with substrate ENLMFQS | area with substrate ENLPFQS | area with substrate ENLRFQS |
| --- | --- | --- | --- | --- | --- | --- | --- | --- | --- | --- |
| G202K | 0.0586 | 0.0646 |  |  |  |  |  |  |  |  |
| V200K |  | 0.0573 | 0.0682 | 0.0568 | 0.0574 |  |  |  |  |  |
| P96W | 0.0852 | 0.0606 | 0.0577 | 0.084 |  | 0.0775 | 0.0625 | 0.0604 | 0.0704 | 0.0717 |
| S209I |  |  |  |  |  | 0.104 |  |  |  | 0.0598 |
| N193S | 0.0767 |  | 0.0906 |  |  |  |  |  |  |  |
| F218R | 0.0766 | 0.0716 | 0.0473 |  | 0.0604 |  | 0.0475 | 0.0675 | 0.0603 |  |
| D149R |  | 0.0617 |  |  |  |  | 0.069 |  |  |  |
| F95M |  |  |  | 0.0705 |  |  |  |  |  |  |
| G8I |  |  |  |  | 0.0631 |  |  | 0.0736 |  |  |
| G153R | 0.044 |  |  |  |  |  |  |  |  |  |
| L205V |  |  |  |  |  |  |  |  | 0.0571 |  |
| T119I | 0.0756 |  | 0.0791 | 0.0723 |  |  |  |  | 0.0689 | 0.0574 |
| C152Q | 0.0649 | 0.0514 | 0.0643 | 0.0601 |  |  |  |  |  |  |
| C152H |  |  | 0.0603 |  | 0.0586 |  |  |  | 0.0445 |  |

Same assay, conditions: temperature: 34 °C; time window: 0-4 h after rhamnose induction

| Variant | area with substrate ENLGFQS | area with substrate ENLSFQS | area with substrate ENLVFQS | area with substrate ENLHFQS | area with substrate ENLTFQS |
| --- | --- | --- | --- | --- | --- |
| S209I | 0.0744 | 0.0498 | 0.0612 |  |  |
| N193S |  | 0.0694 |  | 0.078 |  |
| F218R | 0.0638 |  | 0.0859 | 0.0649 | 0.0532 |
| D149R |  | 0.0516 |  |  |  |
| G8I | 0.0644 |  |  |  |  |
| L205V |  | 0.0549 | 0.0692 |  |  |
| T119I |  | 0.0729 | 0.0983 | 0.0739 |  |
| C152Q |  |  |  | 0.0636 |  |
| C152H |  |  | 0.0701 |  |  |
